Source: the supplement of paper PMC11741623
This is one part of the list. Interaction screen of human proteins with wild-type SARS-CoV-2 proteins by split-DHFR complementation in yeast, 1 µg/mL methotrexate. Value = fitness of the pair (three or more lineages) minus that of the viral protein without a human partner, on a scale set by negative (0) and fused positive (1) controls, mean of up to three cultures; higher = more likely to interact. Active = false discovery rate below 0.05 (one-sided t-test) in at least one culture. Nearly all pairs are not hits, and differences among them are mostly noise (correlation between cultures about 0.3); most hits were seen in one culture only. Human sequences are the Swiss-Prot entries looked up by gene name; the clone may be another isoform. NSP2 values were corrected by the authors for a growth advantage. Listed are human proteins with a hit and a random twelfth of the others.

Legend:
Assay in all cases: yeast fitness gain over the viral ORF with no human partner (scaled fitness); higher = more likely to interact
SARS-CoV-2 E = molecular target: SARS-CoV-2 E
Description: (§1)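 Split mouse DHFR complementation in pooled diploid yeast: human ORFeome clones carry one fragment and viral ORFs the other; barcoded lineages compete in 1 µg/mL methotrexate and fitness is read by barcode sequencing in up to three cultures.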

SARS-CoV-2 M = molecular target: SARS-CoV-2 M
Description: as §1

SARS-CoV-2 N = molecular target: SARS-CoV-2 N
Description: as §1

SARS-CoV-2 NSP1 = molecular target: SARS-CoV-2 NSP1
Description: as §1

SARS-CoV-2 NSP10 = molecular target: SARS-CoV-2 NSP10
Description: as §1

SARS-CoV-2 NSP12 = molecular target: SARS-CoV-2 NSP12
Description: as §1

SARS-CoV-2 NSP13 = molecular target: SARS-CoV-2 NSP13
Description: as §1

SARS-CoV-2 NSP14 = molecular target: SARS-CoV-2 NSP14
Description: as §1

SARS-CoV-2 NSP15 = molecular target: SARS-CoV-2 NSP15
Description: as §1

SARS-CoV-2 NSP16 = molecular target: SARS-CoV-2 NSP16
Description: as §1

SARS-CoV-2 NSP2 = molecular target: SARS-CoV-2 NSP2
Description: as §1

SARS-CoV-2 NSP4 = molecular target: SARS-CoV-2 NSP4
Description: as §1

SARS-CoV-2 NSP5 = molecular target: SARS-CoV-2 NSP5
Description: as §1

SARS-CoV-2 NSP6 = molecular target: SARS-CoV-2 NSP6
Description: as §1

SARS-CoV-2 NSP7 = molecular target: SARS-CoV-2 NSP7
Description: as §1

SARS-CoV-2 NSP8 = molecular target: SARS-CoV-2 NSP8
Description: as §1

SARS-CoV-2 NSP9 = molecular target: SARS-CoV-2 NSP9
Description: as §1

SARS-CoV-2 ORF10 = molecular target: SARS-CoV-2 ORF10
Description: as §1

SARS-CoV-2 ORF3A = molecular target: SARS-CoV-2 ORF3A
Description: as §1

SARS-CoV-2 ORF3B = molecular target: SARS-CoV-2 ORF3B
Description: as §1

SARS-CoV-2 ORF6 = molecular target: SARS-CoV-2 ORF6
Description: as §1

SARS-CoV-2 ORF7A = molecular target: SARS-CoV-2 ORF7A
Description: as §1

SARS-CoV-2 ORF7B = molecular target: SARS-CoV-2 ORF7B
Description: as §1

SARS-CoV-2 ORF8 = molecular target: SARS-CoV-2 ORF8
Description: as §1

SARS-CoV-2 ORF9B = molecular target: SARS-CoV-2 ORF9B
Description: as §1

[1] = molecular target: SARS-CoV-2 ORF9Bwu (the 73-codon ORF)
Description: as §1

SARS-CoV-2 S = molecular target: SARS-CoV-2 S
Description: as §1

Measured: yeast fitness gain

B1: PDIA6, Q15084 (protein)
chain: MALLVLGLVSCTFFLAVNGLYSSSDDVIELTPSNFNREVIQSDSLWLVEFYAPWCGHCQRLTPEWKKAATALKDVVKVGAVDADKHHSLGGQYGVQGFPTIKIFGSNKNRPEDYQGGRTGEAIVDAALSALRQLVKDRLGGRSGGYSSGKQGRSDSSSKKDVIELTDDSFDKNVLDSEDVWMVEFYAPWCGHCKNLEPEWAAAASEVKEQTKGKVKLAAVDATVNQVLASRYGIRGFPTIKIFQKGESPVDYDGGRTRSDIVSRALDLFSDNAPPPELLEIINEDIAKRTCEEHQLCVVAVLPHILDTGAAGRNSYLEVLLKLADKYKKKMWGWLWTEAGAQSELETALGIGGFGYPAMAAINARKMKFALLKGSFSEQGINEFLRELSFGRGSTAPVGGGAFPTIVEREPWDGRDGELPVEDDIDLSDVELDDLGKDEL
inactive: SARS-CoV-2 E 0.0572 | SARS-CoV-2 M 0.0411 | SARS-CoV-2 N 0.046 | SARS-CoV-2 NSP1 = 0.0495 | SARS-CoV-2 NSP10 = -0.0155 | SARS-CoV-2 NSP12 = -0.0243 | SARS-CoV-2 NSP13 = 0.0231 | SARS-CoV-2 NSP14 = 0.083 | SARS-CoV-2 NSP15 = 0.015 | SARS-CoV-2 NSP16 = 0.0375 | SARS-CoV-2 NSP2 = -0.0538 | SARS-CoV-2 NSP4 = 0.0223 | SARS-CoV-2 NSP5 = -0.0119 | SARS-CoV-2 NSP6 = 0.00099 | SARS-CoV-2 NSP7 = 0.01 | SARS-CoV-2 NSP8 = 0.0705 | SARS-CoV-2 NSP9 = 0.0522 | SARS-CoV-2 ORF10 = 0.0252 | SARS-CoV-2 ORF3A 0.0106 | SARS-CoV-2 ORF3B 0.0216 | SARS-CoV-2 ORF6 = 0.0199 | SARS-CoV-2 ORF7A 0.0442 | SARS-CoV-2 ORF7B 0.00873 | SARS-CoV-2 ORF8 = 0.0268 | SARS-CoV-2 ORF9B 0.0182 | [1] -0.000915 | SARS-CoV-2 S -0.0667

B2: NDUFAF1, Q9Y375 (protein)
chain: MALVHKLLRGTYFLRKFSKPTSALYPFLGIRFAEYSSSLQKPVASPGKASSQRKTEGDLQGDHQKEVALDITSSEEKPDVSFDKAIRDEAIYHFRLLKDEIVDHWRGPEGHPLHEVLLEQAKVVWQFRGKEDLDKWTVTSDKTIGGRSEVFLKMGKNNQSALLYGTLSSEAPQDGESTRSGYCAMISRIPRGAFERKMSYDWSQFNTLYLRVRGDGRPWMVNIKEDTDFFQRTNQMYSYFMFTRGGPYWQEVKIPFSKFFFSNRGRIRDVQHELPLDKISSIGFTLADKVDGPFFLEIDFIGVFTDPAHTEEFAYENSPELNPRLFK
inactive: SARS-CoV-2 E 0.045 | SARS-CoV-2 M 0.0255 | SARS-CoV-2 N -0.00247 | SARS-CoV-2 NSP1 = -0.0959 | SARS-CoV-2 NSP10 = 0.00455 | SARS-CoV-2 NSP12 = -0.0769 | SARS-CoV-2 NSP13 = 0.0373 | SARS-CoV-2 NSP15 = -0.0319 | SARS-CoV-2 NSP16 = 0.0459 | SARS-CoV-2 NSP2 = -0.0772 | SARS-CoV-2 NSP4 = -0.0465 | SARS-CoV-2 NSP5 = 0.0199 | SARS-CoV-2 NSP6 = -0.187 | SARS-CoV-2 NSP7 = -0.0071 | SARS-CoV-2 NSP8 = -0.00767 | SARS-CoV-2 NSP9 = -0.155 | SARS-CoV-2 ORF10 = -0.0268 | SARS-CoV-2 ORF3A 0.174 | SARS-CoV-2 ORF3B -0.0113 | SARS-CoV-2 ORF6 = 0.0323 | SARS-CoV-2 ORF7A -0.0733 | SARS-CoV-2 ORF7B 0.0384 | SARS-CoV-2 ORF8 = 0.0451 | SARS-CoV-2 ORF9B -0.0467 | [1] 0.0671 | SARS-CoV-2 S -0.0426

B3: OR10W1, Q8NGF6 (protein)
chain: MEFVFLAYPSCPELHILSFLGVSLVYGLIITGNILIVVSIHTETCLCTSMYYFLGSLSGIEICYTAVVVPHILANTLQSEKTITLLGCATQMAFFIALGSADCFLLAAMAYDRYVAICHPLQYPLLMTLTLCVHLVVASVISGLFLSLQLVAFIFSLPFCQAQGIEHFFCDVPPVMHVVCAQSHIHEQSVLVAAILAIAVPFFLITTSYTFIVAALLKIHSAAGRHRAFSTCSSHLTVVLLQYGCCAFMYLCPSSSYNPKQDRFISLVYTLGTPLLNPLIYALRNSEMKGAVGRVLTRNCLSQNS
inactive: SARS-CoV-2 E 0.137 | SARS-CoV-2 M -0.0103 | SARS-CoV-2 N -0.109 | SARS-CoV-2 NSP1 = 0.0539 | SARS-CoV-2 NSP10 = -0.00808 | SARS-CoV-2 NSP12 = 0.0326 | SARS-CoV-2 NSP13 = 0.00624 | SARS-CoV-2 NSP14 = -0.0766 | SARS-CoV-2 NSP15 = 0.0349 | SARS-CoV-2 NSP16 = -0.0146 | SARS-CoV-2 NSP2 = -0.133 | SARS-CoV-2 NSP4 = 0.0734 | SARS-CoV-2 NSP5 = 0.0486 | SARS-CoV-2 NSP6 = 0.132 | SARS-CoV-2 NSP7 = 0.0765 | SARS-CoV-2 NSP8 = -0.0298 | SARS-CoV-2 NSP9 = 0.0681 | SARS-CoV-2 ORF10 = -0.00358 | SARS-CoV-2 ORF3A -0.118 | SARS-CoV-2 ORF3B 0.0426 | SARS-CoV-2 ORF6 = 0.00746 | SARS-CoV-2 ORF7A -0.0247 | SARS-CoV-2 ORF7B 0.0997 | SARS-CoV-2 ORF8 = 0.0468 | SARS-CoV-2 ORF9B -0.00239 | [1] -0.012 | SARS-CoV-2 S -0.0391

B4: NUDT16L1, Q9BRJ7 (protein)
chain: MSTAAVPELKQISRVEAMRLGPGWSHSCHAMLYAANPGQLFGRIPMRFSVLMQMRFDGLLGFPGGFVDRRFWSLEDGLNRVLGLGLGCLRLTEADYLSSHLTEGPHRVVAHLYARQLTLEQLHAVEISAVHSRDHGLEVLGLVRVPLYTQKDRVGGFPNFLSNAFVSTAKCQLLFALKVLNMMPEEKLVEALAAATEKQKKALEKLLPASS
inactive: SARS-CoV-2 E 0.0355 | SARS-CoV-2 M 0.0572 | SARS-CoV-2 NSP1 = -0.0964 | SARS-CoV-2 NSP10 = -0.112 | SARS-CoV-2 NSP12 = -0.071 | SARS-CoV-2 NSP13 = -0.0309 | SARS-CoV-2 NSP15 = -0.0681 | SARS-CoV-2 NSP16 = -0.056 | SARS-CoV-2 NSP2 = -0.0845 | SARS-CoV-2 NSP5 = -0.0397 | SARS-CoV-2 NSP6 = -0.16 | SARS-CoV-2 NSP7 = -0.102 | SARS-CoV-2 NSP8 = -0.0821 | SARS-CoV-2 NSP9 = 0.123 | SARS-CoV-2 ORF10 = 0.0276 | SARS-CoV-2 ORF3B -0.0269 | SARS-CoV-2 ORF6 = 0.0152 | SARS-CoV-2 ORF7A -0.224 | SARS-CoV-2 ORF7B -0.172 | SARS-CoV-2 ORF8 = -0.0955 | SARS-CoV-2 ORF9B 0.0408 | [1] 0.103 | SARS-CoV-2 S -0.0606
